# According to the supplement of paper PMC8728848:
# This is one part of the list.
# B1: AFCNVH (Aspergillus fumigatus) (protein)
# chain: MSLRGFHTTCDTIVLKDKHILSSRCKRPDGTYSFSEIDLNDCLGNNNGKFVWGGESFVDSASQVNLALEGGEGRPMLHAQLNDWHGSVQSASVNLGECIQNEAGGLEYMHC
# Experiments:
# Assay in all cases: glycan array binding signal (z-score within array); higher = stronger binding
# Conditions in all cases: glycan notation: IUPAC condensed, linker removed
# [1] = molecular target: Fuc(a1-2)[GalNAc(b1-3)]Gal
# How it was run: (§1)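 Glycan array data were curated from 3228 arrays in the Consortium for Functional Glycomics database and kept only where the protein sequence was available. Glycan names were converted to IUPAC-condensed notation, and columns mapping to the same glycan were averaged. The binding signal is a within-array Z-score, averaged across arrays of the same protein sequence at different concentrations or buffers and across linkers. Negative Z-scores can be read as non-binding.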
# Fuc(a1-3)GlcNAc = molecular target: Fuc(a1-3)GlcNAc
# How it was run: as §1
# [2] = molecular target: Fuc(a1-3)[Gal(b1-4)]Glc6S
# How it was run: as §1
# [3] = molecular target: Fuc(a1-3)[Gal(b1-4)]GlcNAc
# How it was run: as §1
# [4] = molecular target: Fuc(a1-3)[Gal(b1-4)]GlcNAc(b1-2)Man
# How it was run: as §1
# [5] = molecular target: Fuc(a1-3)[Gal(b1-4)]GlcNAc(b1-2)Man(a1-3)[Fuc(a1-3)[Gal(b1-4)]GlcNAc(b1-2)Man(a1-6)]Man(b1-4)GlcNAc(b1-4)GlcNAc
# How it was run: as §1
# [6] = molecular target: Fuc(a1-3)[Gal(b1-4)]GlcNAc(b1-2)Man(a1-3)[Fuc(a1-3)[Gal(b1-4)]GlcNAc(b1-2)Man(a1-6)]Man(b1-4)GlcNAc(b1-4)[Fuc(a1-6)]GlcNAc
# How it was run: as §1
# [7] = molecular target: Fuc(a1-3)[Gal(b1-4)]GlcNAc(b1-3)Gal(b1-3)[Fuc(a1-4)]GlcNAc
# How it was run: as §1
# [8] = molecular target: Fuc(a1-3)[Gal(b1-4)]GlcNAc(b1-3)Gal(b1-4)[Fuc(a1-3)]GlcNAc
# How it was run: as §1
# [9] = molecular target: Fuc(a1-3)[Gal(b1-4)]GlcNAc(b1-3)Gal(b1-4)[Fuc(a1-3)]GlcNAc(b1-3)Gal(b1-4)[Fuc(a1-3)]GlcNAc
# How it was run: as §1
# [10] = molecular target: Fuc(a1-3)[Gal(b1-4)]GlcNAc(b1-3)GalNAc
# How it was run: as §1
# [11] = molecular target: Fuc(a1-3)[Gal(b1-4)]GlcNAc(b1-6)GalNAc
# How it was run: as §1
# [12] = molecular target: Fuc(a1-3)[Gal(b1-4)]GlcNAc(b1-6)[Gal(b1-3)GlcNAc(b1-3)]Gal(b1-4)Glc
# How it was run: as §1
# [13] = molecular target: Fuc(a1-3)[Gal(b1-4)]GlcNAc6S
# How it was run: as §1
# [14] = molecular target: Fuc(a1-3)[Gal3S(b1-4)]Glc
# How it was run: as §1
# [15] = molecular target: Fuc(a1-3)[Gal3S(b1-4)]GlcNAc
# How it was run: as §1
# [16] = molecular target: Fuc(a1-3)[Gal3S(b1-4)]GlcNAc6S
# How it was run: as §1
# [17] = molecular target: Fuc(a1-3)[GalNAc(b1-4)]GlcNAc
# How it was run: as §1
# [18] = molecular target: Fuc(a1-3)[GalNAc(b1-4)]GlcNAc6S
# How it was run: as §1
# Fuc(a1-4)GlcNAc = molecular target: Fuc(a1-4)GlcNAc
# How it was run: as §1
# Fuc(b1-3)GlcNAc = molecular target: Fuc(b1-3)GlcNAc
# How it was run: as §1
# Gal(a1-2)Gal = molecular target: Gal(a1-2)Gal
# How it was run: as §1
# Gal(a1-3)Gal = molecular target: Gal(a1-3)Gal
# How it was run: as §1
# Gal(a1-3)Gal(b1-3)GlcNAc = molecular target: Gal(a1-3)Gal(b1-3)GlcNAc
# How it was run: as §1
# [19] = molecular target: Gal(a1-3)Gal(b1-3)GlcNAc(b1-2)Man
# How it was run: as §1
# [20] = molecular target: Gal(a1-3)Gal(b1-3)GlcNAc(b1-2)Man(a1-3)[Gal(a1-3)Gal(b1-3)GlcNAc(b1-2)Man(a1-6)]Man(b1-4)GlcNAc(b1-4)GlcNAc
# How it was run: as §1
# [21] = molecular target: Gal(a1-3)Gal(b1-3)GlcNAc(b1-3)GalNAc
# How it was run: as §1
# [22] = molecular target: Gal(a1-3)Gal(b1-3)GlcNAc(b1-6)GalNAc
# How it was run: as §1
# [23] = molecular target: Gal(a1-3)Gal(b1-3)[Fuc(a1-4)]GlcNAc(b1-2)Man(a1-3)[Gal(a1-3)Gal(b1-3)[Fuc(a1-4)]GlcNAc(b1-2)Man(a1-6)]Man(b1-4)GlcNAc(b1-4)GlcNAc
# How it was run: as §1
# Gal(a1-3)Gal(b1-4)Glc = molecular target: Gal(a1-3)Gal(b1-4)Glc
# How it was run: as §1
# Gal(a1-3)Gal(b1-4)GlcNAc = molecular target: Gal(a1-3)Gal(b1-4)GlcNAc
# How it was run: as §1
# [24] = molecular target: Gal(a1-3)Gal(b1-4)GlcNAc(b1-2)Man
# How it was run: as §1
# [25] = molecular target: Gal(a1-3)Gal(b1-4)GlcNAc(b1-2)Man(a1-3)[Gal(a1-3)Gal(b1-4)GlcNAc(b1-2)Man(a1-6)]Man(b1-4)GlcNAc(b1-4)GlcNAc
# How it was run: as §1
# [26] = molecular target: Gal(a1-3)Gal(b1-4)GlcNAc(b1-3)GalNAc
# How it was run: as §1
# [27] = molecular target: Gal(a1-3)Gal(b1-4)GlcNAc(b1-6)GalNAc
# How it was run: as §1
# [28] = molecular target: Gal(a1-3)Gal(b1-4)[Fuc(a1-3)]GlcNAc
# How it was run: as §1
# [29] = molecular target: Gal(a1-3)Gal(b1-4)[Fuc(a1-3)]GlcNAc(b1-2)Man(a1-3)[Gal(a1-3)Gal(b1-4)[Fuc(a1-3)]GlcNAc(b1-2)Man(a1-6)]Man(b1-4)GlcNAc(b1-4)GlcNAc
# How it was run: as §1
# Gal(a1-3)GalNAc = molecular target: Gal(a1-3)GalNAc
# How it was run: as §1
# [30] = molecular target: Gal(a1-3)[Gal(a1-4)]Gal(b1-4)GlcNAc
# How it was run: as §1
# [31] = molecular target: Gal(a1-4)Gal(b1-3)GlcNAc(b1-2)Man(a1-3)[Gal(a1-4)Gal(b1-3)GlcNAc(b1-2)Man(a1-6)]Man(b1-4)GlcNAc(b1-4)GlcNAc
# How it was run: as §1
# Gal(a1-4)Gal(b1-4)Glc = molecular target: Gal(a1-4)Gal(b1-4)Glc
# How it was run: as §1
# Gal(a1-4)Gal(b1-4)GlcNAc = molecular target: Gal(a1-4)Gal(b1-4)GlcNAc
# How it was run: as §1
# [32] = molecular target: Gal(a1-4)Gal(b1-4)GlcNAc(b1-2)Man(a1-3)[Gal(a1-4)Gal(b1-4)GlcNAc(b1-2)Man(a1-6)]Man(b1-4)GlcNAc(b1-4)GlcNAc
# How it was run: as §1
# [33] = molecular target: Gal(a1-4)Gal(b1-4)GlcNAc(b1-3)Gal(b1-4)Glc
# How it was run: as §1
# Gal(a1-4)GlcNAc = molecular target: Gal(a1-4)GlcNAc
# How it was run: as §1
binder,measurement,setting,value
B1,glycan array binding signal (z-score),[1],-0.464
same,glycan array binding signal (z-score),Fuc(a1-3)GlcNAc,-0.326
same,glycan array binding signal (z-score),[2],-0.331
same,glycan array binding signal (z-score),[3],-0.303
same,glycan array binding signal (z-score),[4],-0.452
same,glycan array binding signal (z-score),[5],-0.414
same,glycan array binding signal (z-score),[6],-0.319
same,glycan array binding signal (z-score),[7],-0.304
same,glycan array binding signal (z-score),[8],-0.255
same,glycan array binding signal (z-score),[9],-0.509
same,glycan array binding signal (z-score),[10],-0.43
same,glycan array binding signal (z-score),[11],-0.537
same,glycan array binding signal (z-score),[12],-0.33
same,glycan array binding signal (z-score),[13],-0.372
same,glycan array binding signal (z-score),[14],-0.437
same,glycan array binding signal (z-score),[15],-0.558
same,glycan array binding signal (z-score),[16],-0.402
same,glycan array binding signal (z-score),[17],1.74
same,glycan array binding signal (z-score),[18],0.612
same,glycan array binding signal (z-score),Fuc(a1-4)GlcNAc,-0.222
same,glycan array binding signal (z-score),Fuc(b1-3)GlcNAc,-0.244
same,glycan array binding signal (z-score),Gal(a1-2)Gal,-0.275
same,glycan array binding signal (z-score),Gal(a1-3)Gal,-0.278
same,glycan array binding signal (z-score),Gal(a1-3)Gal(b1-3)GlcNAc,-0.453
same,glycan array binding signal (z-score),[19],-0.438
same,glycan array binding signal (z-score),[20],-0.55
same,glycan array binding signal (z-score),[21],-0.297
same,glycan array binding signal (z-score),[22],-0.422
same,glycan array binding signal (z-score),[23],-0.042
same,glycan array binding signal (z-score),Gal(a1-3)Gal(b1-4)Glc,-0.399
same,glycan array binding signal (z-score),Gal(a1-3)Gal(b1-4)GlcNAc,-0.087
same,glycan array binding signal (z-score),[24],-0.603
same,glycan array binding signal (z-score),[25],-0.229
same,glycan array binding signal (z-score),[26],-0.327
same,glycan array binding signal (z-score),[27],-0.361
same,glycan array binding signal (z-score),[28],-0.4
same,glycan array binding signal (z-score),[29],-0.335
same,glycan array binding signal (z-score),Gal(a1-3)GalNAc,-0.37
same,glycan array binding signal (z-score),[30],1.37
same,glycan array binding signal (z-score),[31],-0.157
same,glycan array binding signal (z-score),Gal(a1-4)Gal(b1-4)Glc,-0.428
same,glycan array binding signal (z-score),Gal(a1-4)Gal(b1-4)GlcNAc,0.107
same,glycan array binding signal (z-score),[32],-0.371
same,glycan array binding signal (z-score),[33],-0.082
same,glycan array binding signal (z-score),Gal(a1-4)GlcNAc,-0.404
